Source: patent US8729064B2, “Heteroaromatic and aromatic piperazinyl azetidinyl amides as monoacylglycerol lipase inhibitors” (Janssen Pharmaceutica, NV, priority 2009, dated 2014)

Columns and labels:
[1] = target: T1, purified mutant MGL (mut-MGLL 11-313 L179S L186S) (Homo sapiens, UniProt Q99685, L169S/L176S); test: MGL Enzyme Activity Assay (4MU-B cleavage, rate-based fluorescence); format: biochemical; conditions: substrate 4MU-B 10 μM, enzyme 5 nM, 37° C., pH 7; read-out: Example 2 IC50
T1 sequence (Q99685 1-303 L169S/L176S): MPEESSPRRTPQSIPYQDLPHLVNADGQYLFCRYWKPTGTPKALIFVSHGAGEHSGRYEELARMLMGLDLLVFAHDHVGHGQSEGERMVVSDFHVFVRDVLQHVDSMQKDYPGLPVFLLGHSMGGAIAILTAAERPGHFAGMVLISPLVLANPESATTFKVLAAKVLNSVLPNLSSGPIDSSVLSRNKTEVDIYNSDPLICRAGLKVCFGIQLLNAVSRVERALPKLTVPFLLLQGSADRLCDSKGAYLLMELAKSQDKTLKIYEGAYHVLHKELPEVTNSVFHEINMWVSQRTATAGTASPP

[2] = target: T1, purified mutant MGL (mut-MGLL 11-313 L179S L186S); format: binding; conditions: ThermoFluor, 1,8-ANS dye, pH 7.0; read-out: Example 3 Kd

IC50 [1] [nM]	Kd [2] [nM]	Structure (SMILES)
3810	6670	CC(C)(C)Cn1c(-c2ccccc2)cc2cc(C(=O)N3CC(N4CCN(c5ccc(F)cc5)CC4)C3)ccc21 [Compound 25, [1-(2,2-Dimethyl-propyl)-2-phenyl-1H-indol-5-yl]-{3-[4-(4-fluoro-phenyl)-piperazin-1-yl]-azetidin-1-yl}-methanone]
1980	5000	COc1ccccc1N1CCN(C2CN(C(=O)c3ccc4c(c3)cc(-c3ccccc3)n4CC(C)(C)C)C2)CC1 [Compound 24, [1-(2,2-Dimethyl-propyl)-2-phenyl-1H-indol-5-yl]-{3-[4-(2-methoxy-phenyl)-piperazin-1-yl]-azetidin-1-yl}-methanone]
920	50	O=C(c1ccc2c(c1)cc(Cc1ccccc1)n2CC1CCCCC1)N1CC(N2CCN(c3ccccn3)CC2)C1 [Compound 18, (2-Benzyl-1-cyclohexylmethyl-1H-indol-5-yl)-[3-(4-pyridin-2-yl-piperazin-1-yl)-azetidin-1-yl]-methanone]
5460	11100	CC(C)(C)Cn1c(C(C)(C)C)cc2cc(C(=O)N3CC(N4CCN(c5ccccn5)CC4)C3)ccc21 [Compound 26, [2-tert-Butyl-1-(2,2-dimethyl-propyl)-1H-indol-5-yl]-[3-(4-pyridin-2-yl-piperazin-1-yl)-azetidin-1-yl]-methanone]
–	90	CCCc1cc2cc(C(=O)N3CC(N4CCN(c5ccccn5)CC4)C3)ccc2n1CC1CCCCC1 [Compound 28, (1-Cyclohexylmethyl-2-propyl-1H-indol-5-yl)-[3-(4-pyridin-2-yl-piperazin-1-yl)-azetidin-1-yl]-methanone]
1890	2500	COc1ccccc1N1CCN(C2CN(C(=O)c3ccc4c(c3)cc(Cc3ccccc3)n4CC3CCCCC3)C2)CC1 [Compound 23, (2-Benzyl-1-cyclohexylmethyl-1H-indol-5-yl)-{3-[4-(2-methoxy-phenyl)-piperazin-1-yl]-azetidin-1-yl}-methanone]
1420	6670	COc1ccccc1N1CCN(C2CN(C(=O)c3ccc4c(c3)cc(Cc3ccccc3)n4CC(C)C)C2)CC1 [Compound 21, (2-Benzyl-1-isobutyl-1H-indol-5-yl)-{3-[4-(2-methoxy-phenyl)-piperazin-1-yl]-azetidin-1-yl}-methanone]
1070	172	CC(C)(C)c1nc2ccc(C(=O)N3CC(N4CCN(c5ccccn5)CC4)C3)cc2o1 [Compound 19, (2-tert-Butyl-benzooxazol-6-yl)-[3-(4-pyridin-2-yl-piperazin-1-yl)-azetidin-1-yl]-methanone]
9440	28600	COCC(=O)c1c(-c2ccc(C)cc2)[nH]c2ccc(C(=O)N3CC(N4CCN(c5ccccn5)CC4)C3)cc12 [Compound 27, 2-Methoxy-1-{5-[3-(4-pyridin-2-yl-piperazin-1-yl)-azetidine-1-carbonyl]-2-p-tolyl-1H-indol-3-yl}-ethanone]
1340	5560	COc1cccc(-c2nc3cc(C(=O)N4CC(N5CCN(c6ccccn6)CC5)C4)ccc3o2)c1 [Compound 20, [2-(3-Methoxy-phenyl)-benzooxazol-5-yl]-[3-(4-pyridin-2-yl-piperazin-1-yl)-azetidin-1-yl]-methanone]
1670	5560	COc1ccccc1N1CCN(C2CN(C(=O)c3ccc4c(c3)cc(COc3ccccc3)n4CC(C)(C)C)C2)CC1 [Compound 22, [1-(2,2-Dimethyl-propyl)-2-phenoxymethyl-1H-indol-5-yl]-{3-[4-(2-methoxy-phenyl)-piperazin-1-yl]-azetidin-1-yl}-methanone]
880	4000	COc1ccccc1N1CCN(C2CN(C(=O)c3ccc4c(c3)cc(COc3ccccc3)n4CC(C)C)C2)CC1 [Compound 17, (1-Isobutyl-2-phenoxymethyl-1H-indol-5-yl)-{3-[4-(2-methoxy-phenyl)-piperazin-1-yl]-azetidin-1-yl}-methanone]
470	1850	COc1ccccc1Cc1nc2cc(C(=O)N3CC(N4CCN(c5ccccn5)CC4)C3)ccc2o1 [Compound 15, [2-(2-Methoxy-benzyl)-benzooxazol-5-yl]-[3-(4-pyridin-2-yl-piperazin-1-yl)-azetidin-1-yl]-methanone]
440	5000	O=C(c1ccc2[nH]c(CC3CCCCC3)cc2c1)N1CC(N2CCN(c3ccccn3)CC2)C1 [Compound 14, (2-Cyclohexylmethyl-1H-indol-5-yl)-[3-(4-pyridin-2-yl-piperazin-1-yl)-azetidin-1-yl]-methanone]

Second part, the molecule before the results:

Structure (SMILES)	IC50 [1] [nM]	Kd [2] [nM]
CC(C)(C)Cn1c(-c2ccccc2)cc2cc(C(=O)N3CC(N4CCN(c5ccccn5)CC4)C3)ccc21 [Compound 10, [1-(2,2-Dimethyl-propyl)-2-phenyl-1H-indol-5-yl]-[3-(4-pyridin-2-yl-piperazin-1-yl)-azetidin-1-yl]-methanone]	330	20
CC(C)Cc1cc2cc(C(=O)N3CC(N4CCN(c5ccccn5)CC4)C3)ccc2n1CC(C)C [Compound 8, (1,2-Diisobutyl-1H-indol-5-yl)-[3-(4-pyridin-2-yl-piperazin-1-yl)-azetidin-1-yl]-methanone]	220	330
O=C(c1ccc2nc(C3CCCCC3)oc2c1)N1CC(N2CCN(c3ccccn3)CC2)C1 [Compound 2, (2-Cyclohexyl-benzooxazol-6-yl)-[3-(4-pyridin-2-yl-piperazin-1-yl)-azetidin-1-yl]-methanone]	50	130
CC(C)Cn1c(COc2ccccc2)cc2cc(C(=O)N3CC(N4CCN(c5ccccn5)CC4)C3)ccc21 [Compound 9, (1-Isobutyl-2-phenoxymethyl-1H-indol-5-yl)-[3-(4-pyridin-2-yl-piperazin-1-yl)-azetidin-1-yl]-methanone]	230	40
Cn1c(CC2CCCC2)cc2cc(C(=O)N3CC(N4CCN(c5ccccn5)CC4)C3)ccc21 [Compound 12, (2-Cyclopentylmethyl-1-methyl-1H-indol-5-yl)-[3-(4-pyridin-2-yl-piperazin-1-yl)-azetidin-1-yl]-methanone]	360	5000
O=C(c1ccc2c(c1)cc(COc1ccccc1)n2CC1CCCCC1)N1CC(N2CCN(c3ccccn3)CC2)C1 [Compound 11, (1-Cyclohexylmethyl-2-phenoxymethyl-1H-indol-5-yl)-[3-(4-pyridin-2-yl-piperazin-1-yl)-azetidin-1-yl]-methanone]	350	10
CC(C)Cn1c(-c2ccccc2)cc2cc(C(=O)N3CC(N4CCN(c5ccccn5)CC4)C3)ccc21 [Compound 13, (1-Isobutyl-2-phenyl-1H-indol-5-yl)-[3-(4-pyridin-2-yl-piperazin-1-yl)-azetidin-1-yl]-methanone]	430	30
Cc1ccc(-c2cc3cc(C(=O)N4CC(N5CCN(c6ccccn6)CC5)C4)ccc3n2CC(C)C)cc1 [Compound 4, (1-Isobutyl-2-p-tolyl-1H-indol-5-yl)-[3-(4-pyridin-2-yl-piperazin-1-yl)-azetidin-1-yl]-methanone]	60	2
O=C(c1cccc2nc(-c3ccc(F)cc3)oc12)N1CC(N2CCN(c3ccccn3)CC2)C1 [Compound 6, [2-(4-Fluoro-phenyl)-benzooxazol-7-yl]-[3-(4-pyridin-2-yl-piperazin-1-yl)-azetidin-1-yl]-methanone]	100	48
COc1ccc(-c2nc3cccc(C(=O)N4CC(N5CCN(c6ccccn6)CC5)C4)c3o2)cc1 [Compound 7, [2-(4-Methoxy-phenyl)-benzooxazol-7-yl]-[3-(4-pyridin-2-yl-piperazin-1-yl)-azetidin-1-yl]-methanone]	186	83
CC(C)(C)Cn1c(COc2ccccc2)cc2cc(C(=O)N3CC(N4CCN(c5ccccn5)CC4)C3)ccc21 [Compound 1, [1-(2,2-Dimethyl-propyl)-2-phenoxymethyl-1H-indol-5-yl]-[3-(4-pyridin-2-yl-piperazin-1-yl)-azetidin-1-yl]-methanone]	31	1
O=C(c1cccc2nc(-c3cccc(F)c3)oc12)N1CC(N2CCN(c3ccccn3)CC2)C1 [Compound 3, [2-(3-Fluoro-phenyl)-benzooxazol-7-yl]-[3-(4-pyridin-2-yl-piperazin-1-yl)-azetidin-1-yl]-methanone]	55	91
